In patent publication US11540515B2, “Use of dialkoxybenzenes for control of honey bee mite varroa destructor” (Simon Fraser University, priority 2018, dated 2023):
Where a name gives a salt, the structure may show the parent alone. For some assays here: At least one read-out could not be matched to a standard name with certainty. Marks after values point to notes of the source that are not given here. Some results were stated once for a whole list of compounds, not compound by compound.

What was measured:
Varroa mites [1] = experiment: Evaluation of acaricidal effect: emerging bees loaded with Varroa mites in glass petri dish, compound on Parafilm; type: in vivo, Varroa destructor; conditions: number of mites in brackets
Procedure: The effect of the compounds was checked in free moving-mites freshly collected from the bottom board using fine paint brush. All collected Varroa were kept on emerging bees at room temperature until the experiment.
Compounds (code-labeled, Table 1) were prepared in hexane:ethyl acetate (1:1) in 10 mM concentration according to instructions. Dilutions only of compound “A” was prepared. […] This setup enabled the testing of all the compounds and to save the mites.
The assay was conducted in glass petri dish (90 mm diameter and 17 mm deep glass) containing moistened filter paper. Five emerging bees loaded with two Varroa mites were put into each plate. The bees were provided with candy (60% of pollen and 40% sugar). 10 μl or 30 μl volume of each compound or control mix was placed on Parafilm paper (5×5 cm) on the plates cover.

Varroa mites [2] = experiment: Example 6 behavioral dose response bio-assays of Varroa mites; conditions: in vivo
Text: Foragers were collected at the entrance of one or more honey bee hives by aspiration into a jar, when bees were flying back to the colony.
Initially, nurses were collected from an open brood frame of a honey bee hive. Bees apparently attending the brood were targeted for collection. As time passed and temperatures started to drop no open brood was observed, therefore subsequent collections targeted bees around sealed brood. At the end of the sampling period no sealed brood was present, so bees taken from the middle frame of a brood chamber were considered nurses.
Both foragers and nurses were immediately transferred to individual plastic cages (118×98×81 mm: H×W×D), fed with syrup (2:1) and kept overnight in an incubator at 30° C. and 70% RH. Next day, cages were inspected for any dead bees to be removed before freeze killing the bees on dry ice.
For Varroa mite collection, adult bees were taken from the brood chamber's central frames of a mite-infested hive using a glass jar. Bees were fed with syrup (2:1), and kept in an incubator at 30° C. and 70% RH until needed. […]
The bio-assays with a forager and a nurse bee, Varroa mite, and synthesized compounds were set in glass petri dishes placed into an incubator at 30° C. and 70% relative humidity. […] Mite paralysis and death were recorded after 3 h and 5 h.

Row | SMILES | % of surviving mites 24 h post treatment (Varroa mites [1]; 10 μl (100 nmol)) | % of surviving mites 24 h post treatment (Varroa mites [1]; 30 μl (300 nmol)) | concentrations producing a clear paralyzed/killed effect on the mites (Varroa mites [2]) [µg]
1 | C=CCOc1ccccc1OCCC [3a{3,6}, 1-allyloxy-2-propoxybenzene] | 85 (20) % | 100 (20) % | –
2 | CCOc1cccc(OCC)c1 [3b{2,2}, 1,3-diethoxybenzene] | – | – | ≥ 100
3 | C=CCOc1cccc(OCCC)c1 [3b{3,6}, 1-allyloxy-3-propoxybenzene] | 95 (20) % | 90 (20) % | –
4 | C=CCOc1ccc(OC)cc1 [3c{1,6}, 1-(allyloxy)-4-methoxybenzene] | 95 (20) % | 95 (20) % | –
5 | C=CCOc1ccc(OCC)cc1 [3c{2,6}, 1-(allyloxy)-4-ethoxybenzene] | 90 (20) % | 80 (20) % | –
6 | CCCOc1ccc(OCCC)cc1 [3c{3,3}, 1,4-dipropoxybenzene] | 80 (20) % | 22.5 (40)^ % | –
7 | C=CCOc1ccc(OCCC)cc1 [3c{3,6}, 1-allyloxy-4-propoxybenzene] | 100 (20) % | 7.5 (40) % | –
8 | CCCCCOc1ccc(OCCC)cc1 [3c{3,n5}, 1-(pentyloxy)-4-propoxybenzene] | 95 (20) % | 95 (20) % | –
9 | CCCCOc1ccc(OCCC)cc1 [3c{4,3}, 1-butoxy-4-propoxybenzene] | 95 (20) % | 45 (20) % | –
10 | CCCCOc1ccc(OCCCC)cc1 [3c{4,4}, 1,4-dibutoxybenzene] | 95 (20) % | 100 (20) % | –
11 | C=CCOc1ccc(OCCCC)cc1 [3c{4,6}, 1-(allyloxy)-4-butoxybenzene] | 100 (20) % | 33 (30) % | –
12 | CCCCCOc1ccc(OCCCC)cc1 [3c{4,n5}, 1-butoxy-4-(pentyloxy)benzene] | 35 (20) ^c % | 95 (40) % | –
13 | C=CCOc1ccc(OCC=C)cc1 [3c{6,6}, 1,4-bis(allyloxy)benzene] | 55 (20) % | 0 (40) % | ≥ 100
14 | C=CCOc1ccc(OCCCCC)cc1 [3c{n5,6}, 1-(allyloxy)-4-(pentyloxy)benzene] | 90 (20) % | 100 (20) % | –
15 | Cc1ccc(C(C)C)c(OC(=O)C(=O)Oc2cc(C)ccc2C(C)C)c1 [dithymyloxalate] | 80 (20) % | 90 (20) % | –
16 | Cc1ccc(C(C)C)c(OC=O)c1 [thymyl formate] | 90 (20) % | 55 (40) % | –
